In the supplement of paper PMC10126150:
Values marked as one replicate rest on one cluster of the flow cell; about a third of the high ones do not repeat.

What follows are sequences tested on ATP (assay: switch fluorescence ratio, 500 uM ATP over buffer (Cy3 cluster intensity, sum of 5 cycles each) (fold (ratio)); higher = stronger signal-on switching upon ATP binding; sequences stand for … in TCGTCGGCAGCGTCAGATGTGTATAAGAGACAGTTTTTTTTTTTTTTTTTTTTTTTTT…TC). Settings: aptamer strand: ATP DNA aptamer (quencher-CACCTGGGGGAGTATTGCGGAGGAAGG + anchor), 100 nM annealed; ATP concentration: 500 uM; one replicate.
Outline: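 Between each of five buffer/ATP cycles, the flow-cell was stripped with NaOH and re-annealed. Each cycle imaged Cy3-labelled switching-strand clusters, annealed to 100 nM quencher-labelled ATP aptamer on a modified Illumina MiSeq flow-cell, first in selection buffer and then after 15 min with 500 uM ATP at 22 °C. The fluorescence ratio is summed target-cycle over summed buffer-cycle Cy3 intensity per cluster, averaged per switch-domain sequence, with clusters outside 100-1000 RFU excluded.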
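Also: ATP exposure 15 min at 22 °C before imaging.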

Sequence	switch fluorescence ratio
TAGACCGGAT	1.02
ACAATGCT	1.06
CATCTCCTTT	1.03
TTCGTCGGGA	1.02
TGTAATATAA	0.963
TCGACCTGT	1
CGAGGATAAG	0.987
TAGAAGAGCG	1.02
ACCTGGACTT	1.02
AGTTGCGGAT	1.02
TTATAGGGTG	1.04
AGACGCTGCT	0.986
TAAAAGGGCA	0.993
CGGAGCTGCG	1.27
GGACACCCGC	1.11
ATTACTCGGG	1.02
TTAAACTACT	1.1
GAGCAACTGG	1.06
AGTTGGATAG	1.03
TGTAGACCAC	1.05
GCAGTAATGG	1.51
TGGGAAGCCC	0.993
AACACGTCGA	1.06
AGATACATTT	1
CATTTACGGT	1.04
GAGTATACTA	0.991

Sequence	switch fluorescence ratio
TGGATGAA	0.968
CCGAGGTTTG	1.19
CTTGGTCGCC	1.06
TGTTGGCTGC	0.968
CCTTGAGGCT	1.01
GAATGATTTG	0.986
GTGGTCAGAG	0.988
GTTAGTCGTA	0.98
ATGCTTGGG	0.976
TTTGTGAAGC	0.991
GCTTCGGCGT	0.969
ACGGCGAGG	0.979
TTCTCTTGCT	1.03
CTGATCTTGT	1
GGGGCGCGAG	0.996
TAGTGTCTCT	1.01
CAGTCTCAA	1.01
GAGTGGTGCG	1.01
TACTCAAAGT	1.02
GCTTATATGG	0.993
ACCATTGGTC	1.02
TCCTAGCAT	2.23
GGTCAATTGG	0.99
GTAGCATCAT	1.06
AAATGGCGAA	1.03
TGGGAACGGC	1.13

Sequence	switch fluorescence ratio
CATGTGAAGT	0.969
AGCAATTACC	4.79
AAGCGCCCGT	1.03
ATGTGATCAT	0.956
AGCACAAAGA	1.03
ATTGTTATC	0.965
CTATAAGTGT	0.976
TAGTATCGGA	1.01
GGAGTCCAGT	0.989
CCGAGTAACG	1.2
GGACGTTCAT	1.02
TCTTTTGGAC	1
TTGATCAGTT	0.983
CAAGCGAAGA	1.02
CCCTATAGTT	1.04
ATTCGTGTCT	1.02
TAAGCTGGAC	1.01
TGTGTTAATC	0.961
CAGTTGTAGT	1.02
GTTAATTCGG	0.995
AGGAAATGCT	0.979
GCACCGTGTG	0.989
TGTAGCGGCT	1.02
CGAGACGCGC	0.999
GTGATTTGTA	0.975
ATTGTATAGG	0.989

Sequence	switch fluorescence ratio
AATACCTTAA	1.04
ATACCCCGCG	1.11
CAAACGGGAC	1.32
TTGAGTATTA	0.956
GCGATAAAGT	0.969
GTGGGAGTCT	1.09
CGCATTGGGT	1.09
GGTAATTGTA	0.957
AGTCTCGGCG	0.967
TGAGTGCTCG	1.01
GATCTGTTTT	0.982
AGTGGGTTAC	0.976
CAGTCGATCT	1.01
AATCATAAAA	0.987
TAGAATGCAC	1.05
CTGCGATAAG	1.21
GAAAAAACAA	1.05
ATCGCTTTCA	0.987
AGTGTAACTG	1.01
AAAGTCCGGT	1.02
AATCGGCAGA	0.95
GCACGTGTGG	1.02
TACAATACGA	2.28
TTGCAGCTCG	0.977
TTAGGTGCCC	1.04
TTGGAGTTGC	0.969

Sequence	switch fluorescence ratio
GGTTCAGGCG	0.969
ACCGTTTCC	1.5
CGCGTTGTTC	0.992
GTGCTTCCTG	1.08
AAGGACACAG	1.1
CTGGCATTCG	1.06
TCATCGAGGG	0.952
CACACGGAAT	1.38
GGTCACGTT	0.996
TATATACTCA	1.1
ACCATGAGAT	1
TAACAACAAA	0.986
CCTGTTGAAG	1
TGTGACGAGA	1.05
TCATCGACTG	1.02
GACGCCTTTT	1.03
AGATGTACGT	1.01
CCTAGGGGCG	0.987
CTGAGACTGA	1.01
AGGTGCACCT	1
AGGTCACTTT	1.01
TCGGCTGGTG	1.03
CGGCTATCT	1.03
TGCCCCGTC	0.99
GTGGACGACT	0.767
TGTGGACGTG	1.02

Sequence	switch fluorescence ratio
TTATGGCGTG	0.99
ACCCGCACCG	1.32
GATCTCATGA	0.934
GTCACTACAA	0.973
GTTAGCAGGT	1.01
GCGTAGTGAG	1
CTAACATGG	0.99
AAAGTTGAGG	0.967
TGGCCCAAAC	1.01
ACGGCGCTTC	1.29
ACTCGCATAT	5.02
GTCACCGTAA	1.12
ACGACCCCCG	1.5
CTAGAATCCA	0.955
AAGGGAACAG	1
AAGGCCAGCA	0.995
GGAATAGTCA	1.06
GGCTGCAATA	5.09
TCAGGTAGTA	1.06
TCACGTATG	1.06
ATCTAAGTTT	0.994
CTCTACAATG	1.33
ACCTAGTGAC	1.09
TATACGGTAT	1.17
CTTAGACCA	1
GATATATCGA	1.01

Sequence	switch fluorescence ratio
TGTCTGGAAT	1.06
GATGGGGAAA	0.936
ACCGAAAACG	1.12
CACAAGCTCG	0.977
AGCTTAGGGT	0.959
ACGGGGACAT	1.07
CTTCAGGGCC	0.979
GATGCGGATA	1.08
CAGTTCTCTG	0.981
ACACATATAG	1.06
CGTATTGCAT	0.99
TTCGACATAG	0.986
TTGCAAGTTA	1.05
AGAGAAAGTG	1.03
GTCTCTTAAA	1.02
TTTGAACCAG	0.988
TCGTATTTGT	1
ATGGCTGG	1.02
TCAAAGTCGG	1.01
AAGCACTAAG	1.22
TAGCTGCACG	1.02
GTATGAGCTA	1.06
TGAGCATTAT	2.01
GAACGGATGG	0.979
GCATCACCGA	0.982
TTTACCAGCA	1.01

Sequence	switch fluorescence ratio
TACATTCATT	0.969
GTCTGCG	1.04
CTGGTAGACC	1
GGAGTTTGTC	0.943
TTGCCACGGG	1.25
TATCCGATTC	1.02
GAATAAAATC	1.02
TTCACTAAGA	1.04
CCGATAAGC	2.66
TAAAGCAGCG	0.987
AGTCATGATG	1
GTGCGTATCT	0.969
GTTCAACGAC	0.993
TATCAACCAG	1.05
AGATGCGGCC	1
CCTTGGGTGA	1.22
CTATGGATCG	0.975
CCCGGAATTT	1.17
CGCTAAAGAG	1.05
